Values quoted from earlier work, collected in paper PMC11006913.
Substitutions are numbered along the chain they refer to. This is one part of the list.

Tests used:
Conditions in all cases: PBM; conditions not shown; double strand, one strand shown; scale: upbm affinity estimate (log intensity, higher = more binding, comparable within an allelic series)
[1] = target: T1, HESX1 E149K (Homo sapiens) (UniProt Q9UBX0)
T1 sequence: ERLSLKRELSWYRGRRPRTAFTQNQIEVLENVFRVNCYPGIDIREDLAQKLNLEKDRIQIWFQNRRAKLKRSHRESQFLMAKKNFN

[2] = target: T2, HESX1 N125S (Homo sapiens) (UniProt Q9UBX0)
T2 sequence: T1 sequence with N31S, K55E

[3] = target: T3, HESX1 R160C (Homo sapiens) (UniProt Q9UBX0)
T3 sequence: T1 sequence with K55E, R66C

ISX (Homo sapiens) = ISX (Homo sapiens) (UniProt Q2M1V0)
ISX R83Q (Homo sapiens) = ISX R83Q (Homo sapiens) (UniProt Q2M1V0)
[4] = target: HOXD13 I297V (Homo sapiens) (UniProt P35453)
[5] = target: HOXD13 I322L (Homo sapiens) (UniProt P35453)
[6] = target: HOXD13 N298S (Homo sapiens) (UniProt P35453)
[7] = target: HOXD13 Q325K (Homo sapiens) (UniProt P35453)
[8] = target: HOXD13 Q325R (Homo sapiens) (UniProt P35453)
[9] = target: HOXD13 R306W (Homo sapiens) (UniProt P35453)
[10] = target: HOXD13 S316C (Homo sapiens) (UniProt P35453)
[11] = target: PITX2 L100Q (Homo sapiens) (UniProt Q99697)
[12] = target: PITX2 R108H (Homo sapiens) (UniProt Q99697)
[13] = target: PITX2 R130W (Homo sapiens) (UniProt Q99697)
[14] = target: PITX2 T114P (Homo sapiens) (UniProt Q99697)

Sequence: AGGCCCGC [8-mer AGGCCCGC]
- binding signal [1]: 9.76
- binding signal [2]: 7.55
- binding signal [3]: 9.96

Sequence: ATTATGTG [8-mer ATTATGTG]
- binding signal [1]: 10.9
- binding signal [2]: 9.66
- binding signal [3]: 10.5

Sequence: GACGAGCC [8-mer GACGAGCC]
- binding signal [1]: 10
- binding signal [2]: 7.61
- binding signal [3]: 10.2

Sequence: CCGGGACC [8-mer CCGGGACC]
- binding signal [1]: 9.86
- binding signal [2]: 7.91
- binding signal [3]: 10

Sequence: CCCGGTGC [8-mer CCCGGTGC]
- binding signal [1]: 9.95
- binding signal [2]: 7.8
- binding signal [3]: 9.97

Sequence: AAGGGGGA [8-mer AAGGGGGA]
- binding signal [1]: 9.88
- binding signal [2]: 7.84
- binding signal [3]: 10

Sequence: GGCCTCAC [8-mer GGCCTCAC]
- binding signal [1]: 9.91
- binding signal [2]: 7.84
- binding signal [3]: 9.97

Sequence: CCTCCCAG [8-mer CCTCCCAG]
- binding signal [1]: 9.94
- binding signal [2]: 7.54
- binding signal [3]: 10.2

Sequence: GGAAATTA [8-mer GGAAATTA]
- binding signal [1]: 10.9
- binding signal [2]: 10.1
- binding signal [3]: 10.3

Sequence: CCCCCCAG [8-mer CCCCCCAG]
- binding signal [1]: 9.64
- binding signal [2]: 7.55
- binding signal [3]: 9.76

Sequence: TTAATGAA [8-mer TTAATGAA]
- binding signal [1]: 10.9
- binding signal [2]: 10.5
- binding signal [3]: 10.2

Sequence: CGGACTCC [8-mer CGGACTCC]
- binding signal [1]: 9.86
- binding signal [2]: 7.54
- binding signal [3]: 10.1

Sequence: CGTCCGCC [8-mer CGTCCGCC]
- binding signal [1]: 9.9
- binding signal [2]: 7.57
- binding signal [3]: 9.96

Sequence: GAGGAGCA [8-mer GAGGAGCA]
- binding signal [1]: 9.94
- binding signal [2]: 7.66
- binding signal [3]: 10.2

Sequence: CCACGCTC [8-mer CCACGCTC]
- binding signal [1]: 10
- binding signal [2]: 7.64
- binding signal [3]: 9.98

Sequence: CTGACGTC [8-mer CTGACGTC]
- binding signal [1]: 10.1
- binding signal [2]: 7.78
- binding signal [3]: 10.1

Sequence: CCAGCCCA [8-mer CCAGCCCA]
- binding signal [1]: 9.94
- binding signal [2]: 7.58
- binding signal [3]: 10.1

Sequence: CGCAATTA [8-mer CGCAATTA]
- binding signal [1]: 11.4
- binding signal [2]: 11.4
- binding signal [3]: 10.2
- binding signal (ISX (Homo sapiens)): 14.7
- binding signal (ISX R83Q (Homo sapiens)): 13.1

Sequence: ACCGGGGA [8-mer ACCGGGGA]
- binding signal [1]: 9.77
- binding signal [2]: 7.61
- binding signal [3]: 9.92

Sequence: CCCGGCCC [8-mer CCCGGCCC]
- binding signal [1]: 9.82
- binding signal [2]: 7.82
- binding signal [3]: 9.92

Sequence: CGTGGCGC [8-mer CGTGGCGC]
- binding signal [1]: 9.91
- binding signal [2]: 7.49
- binding signal [3]: 9.99

Sequence: CCGACTCC [8-mer CCGACTCC]
- binding signal [1]: 9.96
- binding signal [2]: 7.67
- binding signal [3]: 10.1
- binding signal [4]: 9.5
- binding signal [5]: 9.46
- binding signal [6]: 9.46
- binding signal [7]: 9.5
- binding signal [8]: 9.44
- binding signal [9]: 9.44
- binding signal [10]: 9.51

Sequence: GGCCCGAA [8-mer GGCCCGAA]
- binding signal [1]: 9.95
- binding signal [2]: 7.73
- binding signal [3]: 10
- binding signal [4]: 9.5
- binding signal [5]: 9.38
- binding signal [6]: 9.43
- binding signal [7]: 9.5
- binding signal [8]: 9.43
- binding signal [9]: 9.4
- binding signal [10]: 9.41

Sequence: CAGGGGGC [8-mer CAGGGGGC]
- binding signal [1]: 9.78
- binding signal [2]: 7.57
- binding signal [3]: 9.99

Sequence: CAGGACCC [8-mer CAGGACCC]
- binding signal [1]: 9.97
- binding signal [2]: 7.7
- binding signal [3]: 10.1

Sequence: CAAAATTA [8-mer CAAAATTA]
- binding signal [1]: 10.6
- binding signal [2]: 9.71
- binding signal [3]: 10.2

Sequence: CGCTGCCG [8-mer CGCTGCCG]
- binding signal [1]: 9.81
- binding signal [2]: 7.51
- binding signal [3]: 9.85

Sequence: CTCGCCCC [8-mer CTCGCCCC]
- binding signal [1]: 9.91
- binding signal [2]: 7.86
- binding signal [3]: 10

Sequence: GCTCCTCC [8-mer GCTCCTCC]
- binding signal [1]: 9.86
- binding signal [2]: 7.5
- binding signal [3]: 10.1
- binding signal [4]: 9.43
- binding signal [5]: 9.36
- binding signal [6]: 9.51
- binding signal [7]: 9.28
- binding signal [8]: 9.31
- binding signal [9]: 9.42
- binding signal [10]: 9.53

Sequence: GGCGTCCC [8-mer GGCGTCCC]
- binding signal [1]: 9.87
- binding signal [2]: 7.82
- binding signal [3]: 9.96

Sequence: AGCCGGGG [8-mer AGCCGGGG]
- binding signal [1]: 9.84
- binding signal [2]: 7.61
- binding signal [3]: 9.82

Sequence: CCGCGGAC [8-mer CCGCGGAC]
- binding signal [1]: 9.96
- binding signal [2]: 7.41
- binding signal [3]: 10.1

Sequence: CCCGGGCG [8-mer CCCGGGCG]
- binding signal [1]: 9.74
- binding signal [2]: 7.67
- binding signal [3]: 9.92
- binding signal [4]: 9.33
- binding signal [5]: 9.39
- binding signal [6]: 9.3
- binding signal [7]: 9.59
- binding signal [8]: 9.45
- binding signal [9]: 9.33
- binding signal [10]: 9.35

Sequence: AGGCGCCC [8-mer AGGCGCCC]
- binding signal [1]: 9.73
- binding signal [2]: 7.56
- binding signal [3]: 9.92
- binding signal [4]: 9.41
- binding signal [5]: 9.31
- binding signal [6]: 9.43
- binding signal [7]: 9.25
- binding signal [8]: 9.39
- binding signal [9]: 9.22
- binding signal [10]: 9.28

Sequence: CGCTCGGC [8-mer CGCTCGGC]
- binding signal [1]: 9.93
- binding signal [2]: 7.72
- binding signal [3]: 10
- binding signal [4]: 9.19
- binding signal [5]: 9.35
- binding signal [6]: 9.29
- binding signal [7]: 9.55
- binding signal [8]: 9.39
- binding signal [9]: 9.46
- binding signal [10]: 9.36

Sequence: CCCCCACG [8-mer CCCCCACG]
- binding signal [1]: 9.87
- binding signal [2]: 7.71
- binding signal [3]: 10

Sequence: CAGTCCCG [8-mer CAGTCCCG]
- binding signal [1]: 9.95
- binding signal [2]: 7.86
- binding signal [3]: 10

Sequence: CCAGGCCG [8-mer CCAGGCCG]
- binding signal [1]: 9.89
- binding signal [2]: 7.6
- binding signal [3]: 9.97
- binding signal [4]: 9.41
- binding signal [5]: 9.32
- binding signal [6]: 9.28
- binding signal [7]: 9.53
- binding signal [8]: 9.36
- binding signal [9]: 9.43
- binding signal [10]: 9.43

Sequence: CAGGGCCA [8-mer CAGGGCCA]
- binding signal [1]: 9.85
- binding signal [2]: 7.79
- binding signal [3]: 10.1
- binding signal [4]: 9.43
- binding signal [5]: 9.39
- binding signal [6]: 9.43
- binding signal [7]: 9.46
- binding signal [8]: 9.32
- binding signal [9]: 9.38
- binding signal [10]: 9.37
- binding signal (ISX (Homo sapiens)): 9.69
- binding signal (ISX R83Q (Homo sapiens)): 9.79
- binding signal [11]: 8.19
- binding signal [12]: 8.03
- binding signal [13]: 8.02
- binding signal [14]: 8.06

Sequence: AGCGACGA [8-mer AGCGACGA]
- binding signal [1]: 10
- binding signal [2]: 7.93
- binding signal [3]: 10.1

Sequence: TGGTACCA [8-mer TGGTACCA]
- binding signal [1]: 10.2
- binding signal [2]: 7.98
- binding signal [3]: 10.3

Sequence: GACCGGGC [8-mer GACCGGGC]
- binding signal [1]: 9.87
- binding signal [2]: 7.64
- binding signal [3]: 10.1

Sequence: GAGCTTGC [8-mer GAGCTTGC]
- binding signal [1]: 9.9
- binding signal [2]: 7.23
- binding signal [3]: 9.96

Sequence: AAGCACCG [8-mer AAGCACCG]
- binding signal [1]: 10.1
- binding signal [2]: 7.88
- binding signal [3]: 10.1

Sequence: AAGTTCGG [8-mer AAGTTCGG]
- binding signal [1]: 10.1
- binding signal [2]: 7.7
- binding signal [3]: 10.1

Sequence: AGCGTCCG [8-mer AGCGTCCG]
- binding signal [1]: 9.92
- binding signal [2]: 7.42
- binding signal [3]: 10.1
